Measurements as given in ChEMBL document CHEMBL1139479, “Enantioselective nonsteroidal aromatase inhibitors identified through a multidisciplinary medicinal chemistry approach” (J Med Chem, 2005).

molecular target: T1, Aromatase (Homo sapiens, UniProt P11511); assay: not given
T1 sequence (P11511 whole entry): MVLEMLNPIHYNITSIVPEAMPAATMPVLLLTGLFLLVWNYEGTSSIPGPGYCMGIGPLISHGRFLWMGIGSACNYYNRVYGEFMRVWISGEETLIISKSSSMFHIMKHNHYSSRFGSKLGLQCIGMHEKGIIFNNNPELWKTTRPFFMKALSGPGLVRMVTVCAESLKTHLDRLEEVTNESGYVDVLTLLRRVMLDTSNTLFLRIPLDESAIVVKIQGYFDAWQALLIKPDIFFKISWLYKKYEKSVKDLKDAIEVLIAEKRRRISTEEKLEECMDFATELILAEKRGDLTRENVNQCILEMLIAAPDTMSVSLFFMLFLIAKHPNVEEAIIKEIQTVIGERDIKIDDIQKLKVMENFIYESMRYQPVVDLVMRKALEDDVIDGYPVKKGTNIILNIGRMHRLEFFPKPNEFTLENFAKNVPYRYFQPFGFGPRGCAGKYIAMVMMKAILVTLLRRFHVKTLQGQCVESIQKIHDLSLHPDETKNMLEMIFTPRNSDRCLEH

`Clc1cccc(C(c2ccc3[nH]cnc3c2)n2ccnc2)c1` (stereo unspecified) [LIAROZOLE] and `O=c1c([C@@H](c2ccc(Br)cc2)n2ccnc2)coc2ccccc12` are within 1.5-fold of each other in IC50: 44.7 nM for the first, 49 nM for the second.

First: O=c1ccoc2cc(Cn3cncn3)ccc12
Second: Brc1ccc(Cn2ccnc2)cc1
The IC50 of the first is 11-fold higher: 3720 nM for the first, 339 nM for the second. The second is the more potent here.

Compared with `O=[N+]([O-])c1ccc(Cn2ccnc2)cc1`, `N#Cc1ccc(Cn2ccnc2)cc1` is 39-fold higher in IC50: 28.2 nM for the first, 1100 nM for the second.

Compared with `Cc1oc2c(C#N)ccc(Cn3ccnc3)c2c1C`, `N#Cc1ccc(Cn2ccnc2)c2ccccc12` is 1.7-fold lower in IC50: 18.2 nM for the first, 11 nM for the second. The second is the more potent here.

Compared with `N#Cc1cccc(Cn2ccnc2)c1`, `N#Cc1ccccc1Cn1ccnc1` is 78-fold lower in IC50: 3720 nM for the first, 47.9 nM for the second.

Going from `N#Cc1ccc(C2(n3ccnc3)CCCC2)cc1` to `CC(C)(c1ccc(C#N)cc1)n1ccnc1`, the IC50 rises from 37.2 nM to 95.5 nM (2.6-fold). The first is the more potent here.

`N#Cc1ccc(C(F)(c2ccc(C#N)cc2)n2cncn2)cc1` and `CC(c1ccc(C#N)cc1)(c1ccc(C#N)cc1)n1cncn1` are within 1.5-fold of each other in IC50: 61.7 nM for the first, 43.7 nM for the second.

First: N#Cc1ccc(C(F)(c2ccc(C#N)cc2)n2ncnn2)cc1
Second: N#Cc1ccc(C(F)(c2ccc(C#N)cc2)n2ccnn2)cc1
The IC50 of the first is 1.5-fold higher: 148 nM for the first, 95.5 nM for the second.

Going from `O=c1c([C@H](c2ccc(Br)cc2)n2ccnc2)coc2ccccc12` to `N#Cc1ccc([C@H](c2coc3ccccc3c2=O)n2ccnc2)cc1`, the IC50 falls from 290 nM to 110 nM (2.6-fold). The second is the more potent here.

Compared with `N#Cc1ccc(C(c2ccc(C#N)cc2)c2cccnc2)cc1`, `N#Cc1ccc(C(c2ccc(C#N)cc2)c2cncnc2)cc1` is 4.9-fold higher in IC50: 58.9 nM for the first, 288 nM for the second. The first is the more potent here.

Going from `O=C(c1ccccc1)c1ccc(Cn2ccnc2)cc1` to `N#Cc1ccc([C@@H](c2coc3ccccc3c2=O)n2ccnc2)cc1`, the IC50 rises from 47.9 nM to 630 nM (13-fold).

`N#Cc1ccc(C(=C2CCCCC2)n2cncn2)cc1` and `CCC(c1ccc(C#N)cc1)(c1ccc(C#N)cc1)n1cncn1` are within 1.5-fold of each other in IC50: 95.5 nM for the first, 93.3 nM for the second.

Going from `O=c1c([C@@H](c2ccc([N+](=O)[O-])cc2)n2ccnc2)coc2ccccc12` to `O=c1c([C@H](c2ccc([N+](=O)[O-])cc2)n2ccnc2)coc2ccccc12`, the IC50 rises from 2.3 nM to 96 nM (42-fold).

Compared with `CC(C)(C#N)c1cc(Cn2cncn2)cc(C(C)(C)C#N)c1` [ANASTROZOLE], `N#Cc1ccc(C(F)(c2ccc(C#N)cc2)n2ccnc2)cc1` is 58-fold higher in IC50: 15.1 nM for the first, 871 nM for the second. The first is the more potent here.

First: N#Cc1ccc(C(c2ccc(C#N)cc2)n2ncnn2)cc1
Second: N#Cc1ccc(C(c2ccc(C#N)cc2)n2ccnn2)cc1
The IC50 of the first is 10-fold lower: 5.75 nM for the first, 57.5 nM for the second. The first is the more potent here.

molecular target: T2, CYP17 (steroid 17-alpha-hydroxylase/17,20 lyase) (Homo sapiens, UniProt P05093); assay: in vitro
T2 sequence (P05093 whole entry): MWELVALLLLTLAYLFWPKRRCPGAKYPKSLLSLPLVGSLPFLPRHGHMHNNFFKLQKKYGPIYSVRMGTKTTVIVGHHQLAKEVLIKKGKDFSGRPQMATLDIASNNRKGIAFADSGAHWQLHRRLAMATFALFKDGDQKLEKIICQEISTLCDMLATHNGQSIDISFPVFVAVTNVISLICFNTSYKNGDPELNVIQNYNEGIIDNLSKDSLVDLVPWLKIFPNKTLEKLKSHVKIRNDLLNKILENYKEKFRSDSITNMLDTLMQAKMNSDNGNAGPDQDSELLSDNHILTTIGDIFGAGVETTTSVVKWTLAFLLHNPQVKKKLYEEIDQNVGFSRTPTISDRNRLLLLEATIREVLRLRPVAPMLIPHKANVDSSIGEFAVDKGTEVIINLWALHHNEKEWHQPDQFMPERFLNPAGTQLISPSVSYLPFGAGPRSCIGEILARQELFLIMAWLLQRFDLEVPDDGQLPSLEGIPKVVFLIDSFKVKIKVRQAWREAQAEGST

`N#Cc1ccc([C@@H]2CCCc3cncn32)cc1` [S-FADROZOLE] was tested, and the inhibition at 2.5 µM was 7%.
